Experimental data reported in the RNAGym collection of RNA variant scans (doi:10.1093/nar/gkz1192).
The source gives no read counts; variants with many changes may rest on few reads.

B1: CPEB3 Ribozyme (parent)
chain: UAACAGGGGGCCACAGCAGAAGCGUUCACGUCGCAGCCCCUGUCAGAUUCUGGUGAAUCUGCGAAUUCUGCUGUAUAUCUC

Variants of: B1
Experiment: self-cleavage, relative activity (ratio to wild type); higher = more cleavage; in vitro, sequencing
Outline: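 Libraries of CPEB3 self-cleaving ribozyme mutants came from rounds of error-prone PCR and carried barcodes, which DNA sequencing matched to variants. In vitro transcription used T7 RNA polymerase at 37°C for 5 hours, with a further 15 min in DNase I before EDTA stopped the reaction; the ribozymes cleaved during both steps. The RNA was reverse transcribed with template switching and sequenced on Illumina. Relative activity is the cleaved/total read fraction of a variant divided by that of the unmutated ribozyme, averaged over three batches with at least 5 reads.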

Variant	self-cleavage
A3G G7A U41C U69A	0.28
A3G U31C A57G U69C	0.45
A3G G19U C79A	0.6
A3G G16A U31A A45C U49C U54C	0.02
A3G G24U G46C U48C U67C U74A	0.09
A3G G7A U31A C59A	0.21
A3G U25C C38A U48A U49C C71A	0.35
A3G U26C A28U A35U U41A U54C	0.26
A3G G55A A56G U58G	0.21
A3G G53A A57G	1.11
A3G U41C G55C U72A A77U	0.69
A3G G10A A35G U49C A56U A65U	0.17
A3G U25A U80C	0.54
A3G U43C A45G U60C	0.44
A3G U26C U41A U80C	0.1
A3G U41C U60C	0.41
A3G G8A A35U	0.51
A3G U26C A57U	0.2
A3G G22A U25C U60A C62U U69G U74A	0
A3G U25G A64U	0.28
A3G C38A U49C U54C	0.08
A3G U43C A56U A57C G63A A65G U69A	0.08
A3G U31C A77G U80C	1.15
A3G G36U U49A U78C	0.24

Variant	self-cleavage
A3G U25C U26A G53U U67C	0.24
A3G U25C A57G U80C	0.11
A3G G7A U54C A77U	0.1
A3G G10A A18G A21U U48C G63A A64G	0.04
A3G G30A A35U A47G	0.17
A3G U41C U49C	0.5
A3G U26C A57G U69A U78C	0.32
A3G G6U A15G U43A U51C A56G U78C	0.19
A3G G10A A35G A64G	0.53
A3G U25C A28G U74C	0.72
A3G G22C A47U C50A A64G	0.19
A3G U26C G70U	0.22
A3G G8U A20U U25A A45U G63A U72A	0.04
A3G C39A G73C	0.51
A3G U25C U31C U54C A65U	0.17
A3G G6A U48C U69C	0.14
A3G U31C U43C U66G U78A	0.44
A3G G6U A20G A28G G36U A65G U78G	0.04
A3G U41C C59U	1.06
A3G G6U A57G U76A	0.72
A3G U41C U67C	0.3
A3G G33U U78C	0.1
A3G G30A C39U G42A	0.27
A3G G36U A56G G73A U78A	0.27

Variant	self-cleavage
A3G G61A C62G U72A U76C	0.32
A3G U26C U48C G55A U66C	0.11
A3G G6U A13U G52A U69A	0.16
A3G U41C A45G U69C	0.54
A3G U26C C29U U60A A64G U67C	0.04
A3G C37U U78C	0.67
A3G C38A A45G U60C C62G U66C	0.16
A3G G9U A18C	0.05
A3G U31C U69C	0.3
A3G G24A U31G U69C U76C	0.08
A3G U31C U51C G55A A57U	0.23
A3G G7A U25C U41C U60A U72A	0.09
A3G G7U A13G A20U U25C A35G	0.11
A3G G8U A47G A64G U80C	0.06
A3G U41C A47G C62G	0.29
A3G U31C C44U	0.29
A3G U25C U41C U74C U80C	0.16
A3G G19U U80C	0.55
A3G G33A A47U	0.38
A3G U25A U66A	0.58
A3G G8U U66C	0.13
A3G U43C U78C	0.26
A3G U31A A57G A64G	0.38
A3G U26C A35U U69A U72C	0.1

Variant	self-cleavage
A3G U26C C68A U69G	0.41
A3G U41C A64C	0.3
A3G G22A C38U U43C A47G U67A	0.04
A3G U26C U41C U69A	0.18
A3G U26C C59U U66C	0.34
A3G G16A A56U U60C A64U U72C	0.11
A3G C40U U43G U60C U80C	0.22
A3G U26C U51A U54C	0.66
A3G G36C U41A A56G U60A	0.14
A3G C34U U43A U66C	0.71
A3G U26C U31C U41A A77G	0
A3G G8A U43G A64G U69C A75G U80C	0.06
A3G U41A U48A A64G A65G	0.07
A3G G19C A56C A64G C81A	0
A3G U25C U80C	0.22
A3G G6A A18G C38A U67C	0.24
A3G G9C A21G A64G U74C A77G	0.12
A3G U25C G33A U41C U51G G55A U80C	0.16
A3G G9U A15U A28G A35G U43C U60G	0.05
A3G U25C U76A	0
A3G G6A A18G U25C U51C	0.12
A3G G19C A35G U67C U69C	0.26
A3G G10U C12U U31C A35U A64G	0.06
A3G U25A A57U	0.14

Variant	self-cleavage
A3G G8U A13U G19C U26C U58C	0.07
A3G U43G C71U	0.45
A3G G33A U66G U67A U78A	0.31
A3G G8A A56G	0.39
A3G U43A A45G U69C	0.36
A3G U26C A35G U67A	0.31
A3G G6A A64U U80C	0.46
A3G G16U A28G C50A	0.09
A3G G10A U41A U51A G61U U66C U67C	0.06
A3G C40U A45G U67C U69C C71U	0.1
A3G G8C G10C U26C C37U U72C	0.06
A3G G6A A28G A47G A57G	0.34
A3G G7A A15U A57G A64G	0.08
A3G G33C U49C	0.09
A3G G7A C12U A35G U49C U72C	0.06
A3G G6A C11U A20G C23U U54A A64G	0.04
A3G U26C G42A U51A U67A	0.47
A3G G42U A45G U74A A77G	0.47
A3G U26C A28G C40U U54C U60A U80G	0.09
A3G U25C A56G	0.35
A3G U31C C39G U67C	0.26
A3G U26G A35U A45G U66C U72C	0.41
A3G G6A G33A U60A	0.04
A3G G30U U43A U54A U58A	0.33

Variant	self-cleavage
A3G U43C U60C U72C	0.09
A3G U25C A35G U72A	0.43
A3G U31C G46A U58C A77G	0.13
A3G C44A A45G U60G	0.14
A3G G19C C32A A56C U74C	0.07
A3G G8U C12G A18U U54A C62U U67C	0.05
A3G C44U U58A U60C	0.08
A3G G30A U43C A64G U72A	0.07
A3G U26C A35G U43A A77U	0.3
A3G U26C U60A	0.58
A3G U26C U31A U41A G46A	0.07
A3G U43C U51A G53C U54C A56C	0.32
A3G G7A U43C A65G U80C	0.06
A3G U41C C44A U60C U76A	0.2
A3G G7A A18C G30U U48C A65G	0.22
A3G U25C C37A U41C U51C	0.4
A3G U26C C44U A47G A75U	0.57
A3G U25C A35G U41G U66C U80A	0.58
A3G G22C U25A U43C C68A U78G	0.07
A3G U31C G70A	0.4
A3G G10C U43C C62A G73U	0.05
A3G U31A U51C	0.47
A3G U26A A28U	0.66
A3G G7C G53C A57G C62A G73A	0.06

Variant	self-cleavage
A3G U26A A45G U49C	0.13
A3G U25C G33U	0.18
A3G U25C A56G U72A	0.42
A3G U41A A56G U80G	0.08
A3G C38A A57G U60C U78C	0.04
A3G U43C A57U U60A	0.19
A3G G9U A35C A77G	0.37
A3G U26A A35G U51A A56U	1.2
A3G G9U A21G U26C U31A A45G G70A	0.06
A3G U25G U54A A65C U69A U78C	0.07
A3G U41A A45G U51A U60C U69A U80G	0.06
A3G U31A C40A A56G U60A U78C	0.06
A3G U26A U51C U69C	0.22
A3G G30A U66C	0.24
A3G U41A U49C A57G	0.25
A3G G8U A13U U41A U49C A77U	0.34
A3G U31C A57G	0.96
A3G G10A U25A A28G U69G U78A	0
A3G U43C A47G U80C	0.77
A3G G33U A35U A57U	0.08
A3G U41C U66C	0.41
A3G U41A U58A C62U	0.19
A3G U26C C38A U54C A57U G61A	0.34
